PubChem BioAssay AID485297 (National Center for Advancing Translational Sciences (NCATS), 2010)
Hit rate of the full screen: of about 320,000 compounds, about 9,100 (2.8%) were called active. Inconclusive results, whose numbers are uncertain, are shown with a selection of clear calls. Calls follow the shape of the dose curve; as a rule, active = well fitted activation curve with a large enough effect; inconclusive = small, poorly fitted or top-dose-only effect; inactive = no such curve, though single readings can be large or run the other way. No potency is given beside an inconclusive call; the fits are too rough.

Experiment: qHTS Assay for Rab9 Promoter Activators; also: nearly all actives have a fitted effect of over 60% in size
Conditions: Huh7 Rab9 promoter-luciferase reporter, luminescence, 24 h; series mostly up to 9.22 µM
Procedure, shortened: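 Rab9 promoter-driven luciferase in stably transfected Huh7 cells; 1500 cells/well rested 2 h, exposed to compound in DMSO for 24 h at 37 °C, 5% CO2. Luminescence read 10 min after adding luciferase reagent at ambient temperature.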
Potency is read from the fitted curve at half-maximal effect; tags tell the direction and shape of the fitted curve.

For `COCCCNC(=O)C1CCN(C(=O)c2oc3cc4sc(N(C)C)nc4cc3c2C)CC1`, which Potency is on record?
Its Potency is inconclusive [activator, single point].

Which Potency does the source give for `Cc1cccc(NC(=O)c2ccc(N3CCOCC3)c([N+](=O)[O-])c2)n1` here?
Its Potency is inconclusive [activator, single point].

Which Potency does the source give for `CS(=O)(=O)Nc1cccc(C2=NN(C(=O)CCC(=O)O)C(c3cccs3)C2)c1` (stereo not given) here?
Its Potency is inconclusive [activator, single point].

For `C(=N\Nc1ccccc1)/c1ccc(N2CCOCC2)cc1`, which Potency is on record?
Its Potency is active: 2.82 µM.

With `COc1ccc(NC(=O)Nc2ncccc2C)cc1` as the compound, how does the Potency read?
The Potency was inconclusive [activator, partial curve].

For `Cn1c(SCc2cccc(F)c2)nnc1-c1cnccn1`, which Potency is on record?
Its Potency is inconclusive [activator, single point].

Which Potency does the source give for `O=C(Nc1nnc(SCC(=O)N2CCCc3ccccc32)s1)c1ccccc1` here?
The Potency was inconclusive [activator, partial curve].

Which Potency does the source give for `Cc1ccsc1/C=N/N=C/c1sccc1C` here?
Its Potency is active: 1.58 µM.

With `COC(=O)Cn1cc(C(=O)c2cccs2)c2ccccc21` as the compound, how does the Potency read?
Its Potency is “inactive”.

For `CCc1ccc(C(=O)Cc2cc3cccc(OC)c3oc2=O)cc1`, which Potency is on record?
Its Potency is inconclusive [activator, single point].

For `O=C1C(Cl)=C(NCC2CCCO2)C(=O)N1CCc1ccccc1` (stereo not given), which Potency is on record?
The Potency was inconclusive [activator, partial curve].

With `CN1/C(=C/C(=O)C2CCC2)Sc2ccccc21` as the compound, how does the Potency read?
The Potency was inconclusive [activator, single point].

Which Potency does the source give for `Cc1cc(C)c2cc3c(N)c(C(=O)N4CCc5ccccc5C4)sc3nc2c1` here?
The Potency was “inactive”.

With `CC1CCCCN1C(=O)c1cc2c(=O)n3ccccc3nc2s1` (stereo not given) as the compound, how does the Potency read?
Its Potency is inconclusive [activator, partial curve].

Which Potency does the source give for `Cc1nc(N)sc1C(=O)Nc1ccccc1` here?
The Potency was inconclusive [activator, partial curve].

For `CC(C)c1ccc2oc3nc(N)c(C(=O)O)cc3c(=O)c2c1`, which Potency is on record?
The Potency was active: 0.501 µM.

For `CS(=O)(=O)n1nc(-c2ccc(Cl)cc2)nc1SCc1ccccc1`, which Potency is on record?
The Potency was inconclusive [activator, partial curve].

With `Cc1ccc(C(=O)Nc2cc3c(oc2=O)CCCC3=O)cc1` as the compound, how does the Potency read?
Its Potency is inconclusive [activator, single point].

Which Potency does the source give for `CSCc1ccc(C(=O)Nc2cc(C)cc(C)c2)cc1` here?
The Potency was inconclusive [activator, single point].

Which Potency does the source give for `CCCCC(CC)CNCc1cccn1CCN1CCOCC1` (stereo not given) here?
The Potency was inconclusive [activator, partial curve, poor fit].

With `COc1ccccc1/C=C1\SC(=O)N(CCC(=O)N(C)C2CCS(=O)(=O)C2)C1=O` (stereo not given) as the compound, how does the Potency read?
The Potency was “inactive”.

Which Potency does the source give for `O=C(/C=C/c1ccccc1)Nc1cccnc1` here?
The Potency was active: 2.24 µM.

With `COc1ccccc1-n1cc(C(=O)NCC(=O)N2CCN(c3ccccc3)CC2)c2ccccc2c1=O` as the compound, how does the Potency read?
Its Potency is inconclusive [activator, partial curve].

With `Brc1ccc(-c2nc3ccccc3s2)s1` as the compound, how does the Potency read?
Its Potency is active: 1.58 µM.

For `CCn1ccnc1CN(C)Cc1nc(-c2ccccc2)no1`, which Potency is on record?
Its Potency is inconclusive [activator, single point].

Which Potency does the source give for `CC1CCCCN1CCCNC(=O)c1ccc2nc(N3CCCCC3)sc2c1` (stereo not given) here?
Its Potency is inconclusive [activator, full curve, poor fit].

Which Potency does the source give for `Cc1cc(C)n2nc(-c3ccc(Br)cc3)cc2n1` here?
Its Potency is inconclusive [activator, partial curve].

Which Potency does the source give for `COc1ccccc1C(=O)COC(=O)c1ccc(-n2cnnn2)cc1` here?
Its Potency is “inactive”.

With `Nc1nnc(-c2ccc(Cl)c(Cl)c2)s1` as the compound, how does the Potency read?
The Potency was “inactive”.

For `C1CCN=C(Nc2nc3c(s2)CCCC3)CC1`, which Potency is on record?
The Potency was inconclusive [activator, single point].

Which Potency does the source give for `O=S(=O)(NCc1cn2ccccc2n1)c1cccs1` here?
Its Potency is inconclusive [activator, partial curve].

With `O=C(NCCC1=CCCCC1)c1ccc(Cl)cc1` as the compound, how does the Potency read?
Its Potency is active: 0.282 µM.

With `CN1CCN(c2ccc(-c3cccc(NC(=O)COc4ccccc4)c3)nn2)CC1` as the compound, how does the Potency read?
The Potency was active: 1.58 µM.

With `COc1ccc(C)c2sc(=NC(=O)c3cccc(N4C(=O)CCC4=O)c3)n(C)c12` as the compound, how does the Potency read?
The Potency was inconclusive [activator, full curve].

For `COc1cc(/C=C2\SC(=S)N(N3CCOCC3)C2=O)ccc1O`, which Potency is on record?
Its Potency is “inactive”.

Which Potency does the source give for `O=C1c2ccccc2-c2ccc(C(=O)N3CCCCC3)cc21` here?
The Potency was inconclusive [activator, partial curve].

For `Cn1nc(C(=O)Nc2cccc(Cl)c2)cc1C(=O)Nc1cccc(Cl)c1`, which Potency is on record?
Its Potency is “inactive”.

For `O=C(Nc1cccnc1)c1cc2cc(Br)ccc2o1`, which Potency is on record?
The Potency was inconclusive [activator, single point].

For `Nc1ccc(CSc2ccc(Cl)cc2)cc1`, which Potency is on record?
Its Potency is inconclusive [activator, partial curve, poor fit].

For `CCC(C)NC(=O)c1cc2cc3ccc(OC)cc3nc2o1` (stereo not given), which Potency is on record?
Its Potency is inconclusive [activator, partial curve].

Which Potency does the source give for `CCC1CCCCN1CCCNC(=O)Cn1ncn2nc(-c3ccc(OC)cc3)cc2c1=O` (stereo not given) here?
Its Potency is inconclusive [activator, partial curve].

With `Cc1ccc(Cc2nc3ccccc3[nH]2)cc1` as the compound, how does the Potency read?
The Potency was “inactive”.

Which Potency does the source give for `CC(C)(C)c1ccc(C(=O)N/N=C/c2cccc(Cl)c2)cc1` here?
The Potency was inconclusive [activator, single point].

For `CCOC(=O)C1CCCN(C(=O)CCC(=O)Nc2ccc3nc(N4CCOCC4)cc(C)c3c2)C1` (stereo not given), which Potency is on record?
Its Potency is inconclusive [activator, partial curve].

With `O=C1N/C(=C/c2ccsc2)C(=O)N1c1ccccc1` as the compound, how does the Potency read?
The Potency was active: 2.82 µM.

For `Cc1cc(CNC(=O)c2cccc(OC3CCN(S(=O)(=O)N(C)C)CC3)c2)on1`, which Potency is on record?
The Potency was inconclusive [activator, partial curve].

Which Potency does the source give for `CCCc1cc(=O)oc2cc(C)cc(OCC(=O)NCc3ccccn3)c12` here?
The Potency was inconclusive [activator, single point].

Which Potency does the source give for `CCOc1ccc(/C=C/C(=O)c2ccccc2)cc1OC` here?
Its Potency is inconclusive [activator, single point].

For `CCOC(=O)c1cc2c(s1)-c1c(C)cccc1OC2`, which Potency is on record?
The Potency was inconclusive [activator, full curve].

For `O=C(Nc1ccc2c(c1)OCCO2)c1ccccc1`, which Potency is on record?
Its Potency is active: 0.794 µM.

With `CN=c1scc(-c2ccc([N+](=O)[O-])cc2)n1/N=C/c1ccco1` as the compound, how does the Potency read?
The Potency was active: 0.398 µM.

Which Potency does the source give for `CNc1ncc(C(=O)c2ccccc2)s1` here?
The Potency was inconclusive [activator, partial curve].

For `CSc1ccc(N2C(=O)NC3(CCCCC3)C2=O)cc1`, which Potency is on record?
Its Potency is inconclusive [activator, single point].

With `CCc1sc(C(=O)N(CCCOC)c2c(N)n(CC(C)C)c(=O)[nH]c2=O)cc1C` as the compound, how does the Potency read?
The Potency was “inactive”.

With `CN(Cc1cccs1)C(=O)Cc1csc(-c2ccccc2)n1` as the compound, how does the Potency read?
Its Potency is inconclusive [activator, single point].

For `COc1ccc(/C=N/Nc2ncc(Br)cn2)c(OC)c1`, which Potency is on record?
The Potency was inconclusive [activator, single point].

For `COc1ccc2c(C)nc(Nc3nc(C)c(C)c(=O)[nH]3)nc2c1`, which Potency is on record?
Its Potency is inconclusive [activator, single point].

Which Potency does the source give for `O=C(c1ccc2c(=O)n(Cc3ccccc3Cl)c(=S)[nH]c2c1)N1CCOCC1` here?
Its Potency is “inactive”.

With `Cc1ccnc(NC(=O)c2ccc(Cl)c(NC(=O)c3ccccc3C)c2)c1` as the compound, how does the Potency read?
Its Potency is “inactive”.

For `O=C(Nc1nnc(CC2=CCCCC2)s1)Nc1ccccc1F`, which Potency is on record?
The Potency was inconclusive [activator, single point].

Which Potency does the source give for `CSc1ccc(CC(=O)N2CCC(n3nccc3NC(=O)C3CC3)CC2)cc1` here?
The Potency was inconclusive [activator, partial curve].

For `Cc1cc(F)ccc1NC(=O)c1cc(S(=O)(=O)N2CCc3ccccc32)cn1C`, which Potency is on record?
Its Potency is “inactive”.

For `Cc1c(C(=O)NCc2ccccn2)oc2ccc(Br)cc12`, which Potency is on record?
Its Potency is inconclusive [activator, partial curve].

For `C#CCn1cnc2c(cnn2-c2ccc(C)c(C)c2)c1=O`, which Potency is on record?
The Potency was inconclusive [activator, partial curve].

With `Cc1cccc(N2CCN(C(=O)CCn3c(=O)[nH]c4ccccc4c3=O)CC2)c1C` as the compound, how does the Potency read?
Its Potency is “inactive”.

Which Potency does the source give for `O=C(COc1ccc2c(c1)OCO2)Nc1ccccc1C(F)(F)F` here?
The Potency was inconclusive [activator, single point].

With `COc1cc(OC)cc(C(=O)N2CCC(C(=O)Nc3ccc4c(c3)OCCO4)CC2)c1` as the compound, how does the Potency read?
The Potency was “inactive”.

For `COc1cccc(N(C(=O)c2nc3nccc(C)n3n2)c2nc3ccccc3s2)c1`, which Potency is on record?
The Potency was active: 2 µM.

Which Potency does the source give for `Cc1ccc(NC(=O)c2cccs2)cc1S(=O)(=O)N(C)C` here?
Its Potency is “inactive”.

For `COc1ccc(NC(=O)/C=C/c2cccc(Br)c2)cn1`, which Potency is on record?
Its Potency is inconclusive [activator, partial curve].

With `CC(=O)c1ccc(NC(=O)c2cc3nc4c(c(C(F)(F)F)n3n2)CCCC4)cc1` as the compound, how does the Potency read?
The Potency was inconclusive [activator, single point].

For `CCc1cc(C(=O)Nc2ccc(C)cc2Br)cs1`, which Potency is on record?
Its Potency is inconclusive [activator, single point].

For `COc1cccc(/C=N/Nc2ncnc(N)c2[N+](=O)[O-])c1OC`, which Potency is on record?
Its Potency is active: 0.562 µM.

With `Nc1c(Cl)ncnc1N/N=C/c1ccc2ccccc2n1` as the compound, how does the Potency read?
Its Potency is inconclusive [activator, single point].

With `O=C(CNC(=O)c1ccc2c(c1)OCCO2)N/N=C/c1ccc(O)cc1O` as the compound, how does the Potency read?
The Potency was “inactive”.
